Test results from PubChem BioAssay AID485281 (National Center for Advancing Translational Sciences (NCATS), 2010).
Screen size: about 350,000 compounds; about 260 (0.074%) were called active. The shares of active, inactive and inconclusive entries below differ from those in the screen. Calls come from the whole dose curve; as a rule, active = well fitted inhibition curve with a large enough effect; inconclusive = small, poorly fitted or top-dose-only effect; inactive = no such curve, though single readings can be large or run the other way. Potencies of inconclusive entries are doubtful fits and often do not repeat.

These compounds were tested against Ferritin light chain (Equus caballus) (UniProt P02791) (assay: qHTS Assay for Identification of Novel General Anesthetics). Settings: apoferritin/1-aminoanthracene competitive binding, fluorescence; series mostly up to 77.5 µM.
Chain of UniProt P02791 (P02791 whole entry, looked up): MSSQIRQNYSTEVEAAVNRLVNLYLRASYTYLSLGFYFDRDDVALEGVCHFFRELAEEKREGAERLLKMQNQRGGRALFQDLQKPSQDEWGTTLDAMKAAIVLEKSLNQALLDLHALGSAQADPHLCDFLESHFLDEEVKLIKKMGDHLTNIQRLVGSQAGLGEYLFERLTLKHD
Source text: Source: NIH Chemical Genomics Center [NCGC]
Assay Submitter: Roderic Eckenhoff, University of Pennsylvania
Screening Center PI: Christopher P. Austin, NIH
Probe Development: NIH Chemical Genomics Center [NCGC]
Anesthetic development has remained a largely empirical process. There are growing concerns about the cognitive effects of known general anesthetics and acceleration of the onset of neurodegenerative disease. The compounds' toxicity and multiple specific binding targets in the mammalian brain [4] has made them less attractive as drug leads. In this assay, a GABAergic mimetic model system, apoferritin and a profluorescent 1-aminoanthracene ligand (1-AMA), was used to construct a competitive binding assay for identification of novel general anesthetics. The assay was validated for 1-AMA using other known anesthetics, such as isoflurane (CID:3763) and propofol (CID: 4943), [6].
[1] S.L. Bianchi, T. Tran, C. Liu, S. Lin, Y. Li, J.M. Keller, R.G. Eckenhoff, and M.F. Eckenhoff, Brain and behavior changes in 12-month-old Tg2576 and nontransgenic mice exposed to anesthetics. Neurobiol Aging 29 (2008) 1002-10.
[2] Z. Xie, Y. Dong, U. Maeda, R.D. Moir, W. Xia, D.J. Culley, G. Crosby, and R.E. Tanzi, The inhalation anesthetic isoflurane induces a vicious cycle of apoptosis and amyloid beta-protein accumulation. J Neurosci 27 (2007) 1247-54.
[3] P. Honegger, and J.M. Matthieu, Selective toxicity of the general anesthetic propofol for GABAergic neurons in rat brain cell cultures.
[4] M.F. Eckenhoff, K. Chan, and R.G. Eckenhoff, Multiple specific binding targets for inhaled anesthetics in the mammalian brain. J Pharmacol Exp Ther 300 (2002) 172-9.
[5] C.A. Butts, J. Xi, G. Brannigan, A.A. Saad, S.P. Venkatachalan, R.A. Pearce, M.L. Klein, R.G. Eckenhoff, and I.J. Dmochowski, Identification of a fluorescent general anesthetic, 1-aminoanthracene. Proc Natl Acad Sci U S A 106 (2009) 6501-6.
[6] W.A. Lea, J. Xi, A. Jadhav, L. Lu, C.P. Austin, A. Simeonov, and R.G. Eckenhoff, A high-throughput approach for identification of novel general anesthetics. PLoS One 4 (2009) e7150.
Three uL of reagents (free 1-AMA (50% saturated solution of 1-aminoanthracene
in PBS) in columns 3, 4 as negative control and 1-AMA/apoferritin mixture (10 uM horse-spleen apoferritin in 50% saturated 1-aminoanthracene in PBS) in columns 1, 2, 5-48) was dispensed into 1536-well Greiner black assay plates. Compounds (23 nL) were transferred via Kalypsys pintool equipped with 1,536-pin array (10 nL slotted pins, V&P Scientific, San Diego, CA). Titration of the positive control, propofol, were delivered via pin transfer from separate control plates to the 2nd column of each assay plate. The starting concentration of the control, dissolved in DMSO, was at 160 mM, followed by two-fold dilution points in duplicate, for a total of 16 concentrations. The plates were incubated for 10 min at room temperature, and then read on an EnVision HTS multilabel reader (Perkin-Elmer, Waltham, MA) (end point read, 3 min/plate) using Fura2 BFP excitation filter (380 nm, bandwidth 10 nm) and fluorescein emission filter (535 nm, bandwidth 25 nm) set. A LANCE/DELFIA dichroic mirror with a cutoff wavelength at 400 nm was used to maximize signal accuracy and strength. Vehicle-only plates, with DMSO being pin-transferred to the entire column 5-48 compound area, were inserted uniformly at the beginning and the end of each library in order to monitor for and record any shifts in the background. Activity was computed as the normalized fluorescence response relative to free 1-AMA and 1-AMA/apoferritin complex values. Concentration-effect relationships were derived by using curve fitting algorithms developed in-house (http://ncgc.nih.gov/pub/openhts/). A four parameter Hill equation was fitted to the concentration-response data by minimizing the residual error between the modeled and observed responses.
Note: nearly all actives have a fitted effect of over 20% in size.
Potency is the fitted concentration of half-maximal effect; tags give direction and shape of the fitted curve.

| Structure (SMILES) | Potency |
| --- | --- |
| COc1ccccc1C(=O)NNC(=O)c1cccc(Br)c1 | inconclusive: 35.5 µM [inhibitor, single point] |
| COc1ccc(/C=N/NC(N)=S)cc1OC(=O)c1cccc2ccccc12 | inactive |
| Cc1ccc(S(=O)(=O)N2CCCC(c3nc4c(nnn4Cc4ccc(OC(F)(F)F)cc4)c(=O)[nH]3)C2)cc1 (stereo unspecified) | inactive |
| CCOC(=O)c1ccc2nc(CCC(=O)N[C@H](C(=O)OC)C(C)C)c(=O)n(CC)c2c1 | inconclusive: 28.2 µM [inhibitor, single point] |
| Cc1cccc(N2CC(C(=O)OCc3ccc([N+](=O)[O-])cc3)CC2=O)c1 (stereo unspecified) | inconclusive: 28.2 µM [inhibitor, partial curve] |
| Cc1ccc(C(=O)CN2C(=O)C(C)Oc3ccccc32)cc1 (stereo unspecified) | inconclusive: 31.6 µM [inhibitor, single point] |
| O=C(NNC1=C(C(=O)C(F)(F)F)CCC1)c1cccc(Cl)c1 | inconclusive: 31.6 µM [inhibitor, single point] |
| Cn1nc(-c2ccc(OCC(=O)Nc3ccccc3)cc2)c2ccccc2c1=O | inactive |
| CC(C)(c1ccccc1)c1ccc(OCC(O)CN2CCCC2)cc1 (stereo unspecified) | inconclusive: 17.8 µM [inhibitor, partial curve] |
| Cc1cc(C)n2cc(COc3ccc4ccccc4c3)nc2n1 | inconclusive: 50.1 µM [inhibitor, single point] |
| CCCCN1C(=O)NC2NC(=O)NC21 (stereo unspecified) | inactive |
| Cc1ccc(SCC(=O)NN=C2CCN(C)CC2)cc1 | inconclusive: 22.4 µM [inhibitor, partial curve] |
| Cc1ccc(C)c2[nH]c(=O)c(C(c3nnnn3C(C)(C)C)N3CC=C(c4ccc(F)cc4)CC3)cc12 (stereo unspecified) | inactive |
| COc1ccc(C(=O)O/N=C(\N)c2ccccn2)cc1 | inactive |
| c1ccc2c(N3CCCCCC3)nc(-c3ccncc3)nc2c1 | inconclusive: 28.2 µM [inhibitor, single point] |
| O=C(CSc1nccn1-c1ccc(Cl)cc1)Nc1nc2ccccc2s1 | inactive |
| O=C(Cc1nc(-c2ccc([N+](=O)[O-])cc2)cs1)Nc1ccccc1 | inconclusive: 20 µM [inhibitor, partial curve] |
| Cc1ccc(C(=O)Nc2ccc(F)cc2F)o1 | inconclusive: 44.7 µM [inhibitor, single point] |
| O=C(c1ccccc1)N1CCN(Cc2ccccc2)CC1 | inactive |
| OCCNCCCCOc1ccc(OCc2ccccc2)cc1 | inconclusive: 11.2 µM [inhibitor, partial curve] |
| CCc1ccc(-c2ccc3nnc(SC)n3n2)cc1 | inactive |
| O=C1NC(=S)N/C1=C/c1cccc([N+](=O)[O-])c1 | inactive |
| COc1ccc(-c2nc(SC(CC(=O)NCc3ccccc3)c3ccc(OC)c(OC)c3)n[nH]2)cc1 (stereo unspecified) | inconclusive: 22.4 µM [inhibitor, partial curve] |

| Structure (SMILES) | Potency |
| --- | --- |
| COC(=O)c1ccc(CSc2nc3scc(-c4cccs4)c3c(=O)[nH]2)o1 | inconclusive: 15.8 µM [inhibitor, partial curve] |
| COc1ccccc1CNC(=O)C(C)n1nc(C)c2c(C)n(-c3ccccc3)nc2c1=O (stereo unspecified) | inconclusive: 28.2 µM [inhibitor, single point] |
| O=C(CCSCc1ccc(Cl)cc1)NCc1ccco1 | inconclusive: 35.5 µM [inhibitor, single point] |
| COc1ccc(Nc2cc(C)nc(NCc3ccccc3)n2)cc1 | inconclusive: 50.1 µM [inhibitor, single point] |
| Cc1cc(CNC(=O)c2cc(COc3c(F)cccc3F)on2)nn1C | inconclusive: 17.8 µM [inhibitor, partial curve] |
| CC(C)(C)c1ccc(-c2noc(CCC(=O)Nc3cccnc3)n2)cc1 | inconclusive: 50.1 µM [inhibitor, single point] |
| O=C(Nc1ccccc1Cl)/C(Cl)=C(\Cl)S(=O)c1ccccc1 (stereo unspecified) | inconclusive: 25.1 µM [inhibitor, partial curve] |
| NC(=O)c1c(NC(=O)c2ccccc2Cl)sc2c1CCC2 | inactive |
| Cc1ccc(C(=O)NCCNc2ccc([N+](=O)[O-])cc2C(F)(F)F)cc1 | inconclusive: 35.5 µM [inhibitor, partial curve] |
| Oc1ccccc1C(=S)N1CCN(c2cccc(Cl)c2)CC1 | inconclusive: 31.6 µM [inhibitor, partial curve] |
| CSc1nsc(SC)c1C(=O)Nc1ccc(C(C)(C)C)cc1 | inactive |
| Cc1cccc(-c2noc(-c3cc4ccccc4oc3=O)n2)c1 | inactive |
| CN(Cc1ccccc1)c1ccc(C(CC(N)=O)NC(=O)c2ccc(Br)cc2)cc1[N+](=O)[O-] (stereo unspecified) | inconclusive: 28.2 µM [inhibitor, partial curve] |
| CCOC(=O)C1(CCc2ccccc2)CCN(Cc2cccc3nccnc23)CC1 | inactive |
| Cc1ccc2oc(C(=O)N3CCCCCC3)c(C)c2c1 | inconclusive: 14.1 µM [inhibitor, partial curve] |
| Cc1ccc(NC2CCCN(C(=O)c3ccc(-n4ccnc4)cc3)C2)cc1C (stereo unspecified) | inconclusive: 22.4 µM [inhibitor, partial curve] |
| CSc1ccccc1NC(=O)c1cccs1 | inconclusive: 22.4 µM [inhibitor, partial curve] |
| C=CCn1c(SCC(=O)Nc2ccc3c(c2)OCCO3)nnc1-c1ccco1 | inconclusive: 22.4 µM [inhibitor, partial curve] |
| Cc1ccc(NC(=O)C2OCCc3ccccc32)cc1 (stereo unspecified) | inconclusive: 31.6 µM [inhibitor, partial curve] |
| C[C@H](NC(=O)c1nc[nH]c1C(=O)NCc1ccccc1)C(=O)OC(C)(C)C | inconclusive: 11.2 µM [inhibitor, partial curve] |
| Cn1nnc2c(N3CCN(c4ccccc4F)CC3)ncnc21 | inactive |
| CCC1CCCCN1CC(=O)N1CCCc2c1c(=O)oc1ccc(OCc3ccccc3)cc21 (stereo unspecified) | inconclusive: 3.98 µM [inhibitor, single point] |
| O=C(COc1ccc(Cl)cc1)N1CCN(S(=O)(=O)c2ccccc2)CC1 | inconclusive: 20 µM [inhibitor, partial curve] |
